From article PMC6957217
These are yes or no findings as the source states them, for the method shown. Some entries that bind do so weakly or less than the wild type.

Chains of the proteins cited; added tags and fusions are not shown. Lines headed by an entry give the natural chain unless they say otherwise; changes in a name come on top.
UniProt P03744: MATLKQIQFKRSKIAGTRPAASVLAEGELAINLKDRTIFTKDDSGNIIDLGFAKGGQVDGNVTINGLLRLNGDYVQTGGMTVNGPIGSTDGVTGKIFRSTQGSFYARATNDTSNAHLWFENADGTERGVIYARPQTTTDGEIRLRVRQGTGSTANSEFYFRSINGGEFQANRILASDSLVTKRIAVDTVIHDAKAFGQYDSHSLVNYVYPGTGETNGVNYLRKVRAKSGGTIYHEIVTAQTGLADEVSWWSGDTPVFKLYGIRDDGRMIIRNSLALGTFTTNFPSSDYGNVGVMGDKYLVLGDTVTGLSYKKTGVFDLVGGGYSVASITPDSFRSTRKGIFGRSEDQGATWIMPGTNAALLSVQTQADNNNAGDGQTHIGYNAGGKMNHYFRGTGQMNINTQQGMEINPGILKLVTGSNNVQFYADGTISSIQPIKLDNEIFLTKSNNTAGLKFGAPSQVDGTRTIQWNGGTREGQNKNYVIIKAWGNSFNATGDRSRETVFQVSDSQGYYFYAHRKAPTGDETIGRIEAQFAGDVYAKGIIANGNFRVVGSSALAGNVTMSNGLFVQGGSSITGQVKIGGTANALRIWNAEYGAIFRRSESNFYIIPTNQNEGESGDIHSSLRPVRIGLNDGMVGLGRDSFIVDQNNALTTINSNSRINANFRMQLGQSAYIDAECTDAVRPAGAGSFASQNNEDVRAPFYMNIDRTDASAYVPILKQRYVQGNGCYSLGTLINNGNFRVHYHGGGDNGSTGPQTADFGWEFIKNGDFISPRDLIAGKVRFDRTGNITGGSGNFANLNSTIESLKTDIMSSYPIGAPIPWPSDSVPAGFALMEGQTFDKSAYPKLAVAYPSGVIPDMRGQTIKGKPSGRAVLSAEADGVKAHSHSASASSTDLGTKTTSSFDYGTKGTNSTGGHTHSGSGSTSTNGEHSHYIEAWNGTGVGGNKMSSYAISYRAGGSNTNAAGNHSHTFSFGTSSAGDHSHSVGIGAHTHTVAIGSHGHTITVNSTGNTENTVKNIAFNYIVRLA

These substances were tested against T1, OmpC on OmpC^+ E. coli (K12 strain) cells (E. coli K12 (endogenous in E. coli K12 cells)) (UniProt P06996) (assay: binding to whole E. coli cells, pelleting and Western blot; about 10^8 E. coli cells in PBS, about 3 x 10^5 gp37 molecules per cell, 37 °C 2 hr, washed twice, bound gp37 detected with anti-histag antibodies; also at several protein concentrations and with increasing purified E. coli B LPS; only the binder purified).
T1 sequence: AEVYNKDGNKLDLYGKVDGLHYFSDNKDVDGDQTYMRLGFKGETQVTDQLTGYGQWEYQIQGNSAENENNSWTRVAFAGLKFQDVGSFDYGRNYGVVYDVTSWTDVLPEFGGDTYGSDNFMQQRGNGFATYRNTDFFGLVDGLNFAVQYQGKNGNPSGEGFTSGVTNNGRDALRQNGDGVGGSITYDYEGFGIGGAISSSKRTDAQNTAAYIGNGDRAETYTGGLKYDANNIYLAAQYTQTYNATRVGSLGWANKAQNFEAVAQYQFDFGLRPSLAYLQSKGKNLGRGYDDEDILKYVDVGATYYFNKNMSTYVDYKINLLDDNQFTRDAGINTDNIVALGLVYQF

binding, binds:
Phage T4 LTF needle (gp37; amino acids 799–1026), wild type (from UniProt P03744 799-1026) (domain or fragment)
gp37 needle (799–1026) N937A (from UniProt P03744 799-1026) (domain or fragment)
gp37 needle (799–1026) G938A (from UniProt P03744 799-1026) (domain or fragment)
